ChEMBL document CHEMBL4888484, “Replenishing the malaria drug discovery pipeline: Screening and hit evaluation of the MMV Hit Generation Library 1 (HGL1) against asexual blood stage Plasmodium falciparum ,using a nano luciferase reporter read-out” (2022)
Screen size: about 150,000 compounds; about 540 (0.36%) showed an effect of 50% or more. The list shows a part of the results.

What follows are compounds tested on Plasmodium falciparum (assay: Primary screen in NF54 nanoGlo assay, in single point, at 2uM, 72h; a lower Z score goes with more inhibition). Conditions: timepoint 72 hour.
Assay type: functional, Erythrocyte

First: Cn1cc(-c2noc(CNC(=O)c3ccco3)n2)cn1
Second: Cc1noc(-c2cccc(=O)n2CC(=O)NCc2ccccc2)n1
The “% Inhibition” value of the first is lower: -17% for the first, -6% for the second.

Compared with `Cc1ccc(CN(C[C@H](O)COC(C)C)C(C)C)c(C)c1`, `CC(C)c1cc(C(=O)N(CC#N)C(C)C)n(C)n1` is lower in “% Inhibition” value: 5% for the first, -14% for the second.

First: COc1ccc(OC)c(-c2[nH]c3ccccc3c2[C@@H]2CCC(=O)N2CCCOC(C)C)c1
Second: COc1cc2c(-c3ccccc3)c(C)oc2cc1CN1CCC([C@]2(C)NC(=O)NC2=O)CC1
The “% Inhibition” value of the first is lower: -16% for the first, -10% for the second.

Going from `Cc1noc(C)c1C(=O)N1CC[C@H](c2ccsc2)C1` to `Cc1nc(-c2ccncc2)nc(N2CCO[C@H](C(F)F)C2)c1C`, the “% Inhibition” value rises from -11% to 0%.

Going from `CN(C(=O)Cn1ccc2ccccc21)c1ccc(-c2ccccc2)nn1` to `C[C@@]1(C(=O)NCc2ccccc2)Cn2nc(-c3ccccc3)cc2C(=O)N1C1CC1`, the “% Inhibition” value falls from 33% to 9%.

Compared with `CC(C)NC[C@H](CCO)c1ccccc1`, `O=C(O)[C@H](NCc1cnc(C2CC2)s1)c1cccc(Cl)c1` is lower in “% Inhibition” value: -12% for the first, -14% for the second.

First: O=S(=O)(NCC1CCCCC1)C1CCCCC1
Second: CN(Cc1ccccc1)[C@H]1CCOC2(CCN(C(=O)CCC3CCCC3)CC2)C1
The “% Inhibition” value of the first is higher: 3% for the first, -7% for the second.

Going from `OC1CCN(c2ccnc(NCc3ccc4[nH]c5c(c4c3)CCCC5)n2)CC1` to `COc1ccc(CC(=O)Nc2ccc3nc4n(c(=O)c3c2)CCCC4)cc1`, the “% Inhibition” value rises from -6% to 2%.

Going from `CCN(CC)S(=O)(=O)N1CC(c2ccccn2)C1` to `CCO[C@H]1COC[C@@H]1Nc1ccnc(C(=O)NCc2ccccn2)c1`, the “% Inhibition” value falls from 1% to -1%.

Going from `CN(C)[C@H]1CCCCN(c2nc3ccccc3s2)C1` to `Cc1csc(NC(=O)[C@H](Cc2ccccc2)NC(=O)N2CCCC2)n1`, the “% Inhibition” value falls from -4% to -8%.

Going from `CCOCCCC(=O)NCc1cncc(F)c1` to `CCOCCNC(=O)CN(C)c1cccc(O)c1`, the “% Inhibition” value rises from -4% to 11%.

Going from `COc1ccc(CN2[C@@H]3CN(C(=O)c4c(F)cccc4F)C[C@@H]3OCCS2(=O)=O)cc1` to `Cc1ccc(Cn2c(=O)c(C(=O)N3CCOCC3)nn(-c3cccc(Cl)c3)c2=O)cc1`, the “% Inhibition” value rises from -15% to 3%.

First: Cc1c(Cl)c(C(=O)NCCc2ccccc2C(F)(F)F)nn1C
Second: Cc1n[nH]cc1NC(=O)c1occc1-c1ccccc1
The “% Inhibition” value of the first is lower: -17% for the first, -1% for the second.

First: CCc1cc(NC(=O)[C@@H](NC(=O)N2CCCC2)C(C)CC)n(C)n1 (stereo not given in full)
Second: Cn1ccc(CCNC(=O)N2CC[C@H](C(=O)N3CCCC3)C2)n1
The “% Inhibition” value of the first is higher: -1% for the first, -12% for the second.

Going from `CC(=O)N[C@H]1C[C@@H](c2cccc(O)c2)O[C@@H](c2ccc3c(c2)nnn3C)C1` to `Cc1cc(CN(C)C(=O)Nc2cccc3cccnc23)no1`, the “% Inhibition” value rises from -16% to -7%.

Going from `CCn1c(C)nnc1CNC(C)C1CCCC(C)C1` (stereo not given) to `CN(C)c1noc(CN2CC[C@@]2(C)C2CCCCC2)n1`, the “% Inhibition” value falls from 5% to -14%.

`Cc1nn(Cc2csc(-c3cccs3)n2)c(N)c1C#N` and `Nc1ncc(C2(c3cccs3)CCCC2)s1` are the same in “% Inhibition” value: -6% for the first, -6% for the second.

First: O[C@@H](Cc1nc(-c2ccccn2)no1)c1cccc(F)c1
Second: Cc1ccc2[nH]c(-c3nc(CCN(C)C(=O)c4ccc(F)cc4Cl)no3)c(C)c2c1
The “% Inhibition” value of the first is lower: -1% for the first, 4% for the second.

Compared with `CN1[C@@H]2CC[C@H]1CN(C(=O)Nc1ccc(-c3cscn3)cc1)CC2`, `Cc1nnc(-c2cccc(NC(=O)C3CCN(C(=O)Cn4cccn4)CC3)c2)s1` is lower in “% Inhibition” value: 7% for the first, -17% for the second.

Going from `CN(CC1(c2ccc(Br)cc2)CC1)C(=O)[C@H]1CCn2cncc2C1` to `O=C1CC[C@@]2(CCCN(C(=O)c3ccccc3)C2)CN1CCc1c[nH]cn1`, the “% Inhibition” value rises from -7% to -6%.

First: C[C@H](NC(=O)c1ccnn1C(F)F)C(C)(C)C
Second: CC[C@@H](C(C)C)S(=O)(=O)NC(=O)c1cc(C#N)cn1C
The “% Inhibition” value of the first is lower: -10% for the first, -5% for the second.

Compared with `CCCCN(CC(N)=O)c1cc(C)nc(CC)n1`, `COCCn1ccnc1CN(C)Cc1nc(C)c[nH]1` is lower in “% Inhibition” value: 2% for the first, -16% for the second.

First: CC(C)C[C@@H](Cc1ccn(C(C)C)n1)C(=O)O
Second: CNC(=O)COC(=O)Cc1ccc(Cl)cc1
The “% Inhibition” value of the first is lower: -4% for the first, 30% for the second.

Going from `COc1ccccc1N1CCN(C(=O)C2CC=CCC2C(=O)O)CC1` (stereo not given) to `Cc1c(CN2CCC(CCC(=O)Nc3ccccc3Cl)CC2)[nH]c2ccccc12`, the “% Inhibition” value falls from 1% to -5%.

Going from `CN1CCCCC[C@H]1C(=O)N1CCC2(CCOCC2)CC1` to `Cn1nc(-c2ccc3c(c2)OCCO3)nc1N1CCCCC1`, the “% Inhibition” value rises from -9% to -6%.

Compared with `CC(C)C[C@H]1NC(=O)[C@H]2CN(S(=O)(=O)c3ccc(Cl)cc3)CCN2C1=O`, `Cc1n[nH]c(C)c1Cc1n[nH]c(=O)n1-c1cccc(Cl)c1` is lower in “% Inhibition” value: -7% for the first, -12% for the second.

First: Cc1cc(NCc2ccnn2C)nc(C)n1
Second: Cc1cc(S(=O)(=O)N[C@@H]2COCC[C@@H]2OCCN(C)C)c(C)s1
The “% Inhibition” value of the first is lower: -12% for the first, -1% for the second.

For `O=C1N[C@@](O)(c2ccccc2)c2cc3c(cc21)OCCO3`, the “% Inhibition” value was -12%.

Compared with `Cn1cc(-c2noc(CNC(=O)c3ccco3)n2)cn1`, `Cc1noc(-c2cccc(=O)n2CC(=O)NCc2ccccc2)n1` is lower in Z score: 2.12 for the first, 0.6 for the second.

Going from `Cc1ccc(CN(C[C@H](O)COC(C)C)C(C)C)c(C)c1` to `CC(C)c1cc(C(=O)N(CC#N)C(C)C)n(C)n1`, the Z score rises from -0.81 to 1.69.

Going from `COc1ccc(OC)c(-c2[nH]c3ccccc3c2[C@@H]2CCC(=O)N2CCCOC(C)C)c1` to `COc1cc2c(-c3ccccc3)c(C)oc2cc1CN1CCC([C@]2(C)NC(=O)NC2=O)CC1`, the Z score falls from 1.84 to 1.83.

First: Cc1noc(C)c1C(=O)N1CC[C@H](c2ccsc2)C1
Second: Cc1nc(-c2ccncc2)nc(N2CCO[C@H](C(F)F)C2)c1C
The Z score of the first is higher: 2.05 for the first, -0.02 for the second.

Compared with `CN(C(=O)Cn1ccc2ccccc21)c1ccc(-c2ccccc2)nn1`, `C[C@@]1(C(=O)NCc2ccccc2)Cn2nc(-c3ccccc3)cc2C(=O)N1C1CC1` is higher in Z score: -3.74 for the first, -1.39 for the second.

First: CC(C)NC[C@H](CCO)c1ccccc1
Second: O=C(O)[C@H](NCc1cnc(C2CC2)s1)c1cccc(Cl)c1
The Z score of the first is lower: 1.2 for the first, 2.56 for the second.

Compared with `O=S(=O)(NCC1CCCCC1)C1CCCCC1`, `CN(Cc1ccccc1)[C@H]1CCOC2(CCN(C(=O)CCC3CCCC3)CC2)C1` is higher in Z score: -0.56 for the first, 0.93 for the second.

Compared with `OC1CCN(c2ccnc(NCc3ccc4[nH]c5c(c4c3)CCCC5)n2)CC1`, `COc1ccc(CC(=O)Nc2ccc3nc4n(c(=O)c3c2)CCCC4)cc1` is lower in Z score: 0.82 for the first, -0.43 for the second.

Going from `CCN(CC)S(=O)(=O)N1CC(c2ccccn2)C1` to `CCO[C@H]1COC[C@@H]1Nc1ccnc(C(=O)NCc2ccccn2)c1`, the Z score rises from -0.12 to 0.2.

Going from `CN(C)[C@H]1CCCCN(c2nc3ccccc3s2)C1` to `Cc1csc(NC(=O)[C@H](Cc2ccccc2)NC(=O)N2CCCC2)n1`, the Z score rises from 0.73 to 1.02.

Going from `CCOCCCC(=O)NCc1cncc(F)c1` to `CCOCCNC(=O)CN(C)c1cccc(O)c1`, the Z score falls from 0.67 to -1.59.

First: COc1ccc(CN2[C@@H]3CN(C(=O)c4c(F)cccc4F)C[C@@H]3OCCS2(=O)=O)cc1
Second: Cc1ccc(Cn2c(=O)c(C(=O)N3CCOCC3)nn(-c3cccc(Cl)c3)c2=O)cc1
The Z score of the first is higher: 2.38 for the first, -0.45 for the second.

First: Cc1c(Cl)c(C(=O)NCCc2ccccc2C(F)(F)F)nn1C
Second: Cc1n[nH]cc1NC(=O)c1occc1-c1ccccc1
The Z score of the first is higher: 2.14 for the first, 0.31 for the second.

Going from `CCc1cc(NC(=O)[C@@H](NC(=O)N2CCCC2)C(C)CC)n(C)n1` (stereo not given in full) to `Cn1ccc(CCNC(=O)N2CC[C@H](C(=O)N3CCCC3)C2)n1`, the Z score rises from 0.25 to 1.56.

Going from `CC(=O)N[C@H]1C[C@@H](c2cccc(O)c2)O[C@@H](c2ccc3c(c2)nnn3C)C1` to `Cc1cc(CN(C)C(=O)Nc2cccc3cccnc23)no1`, the Z score falls from 1.86 to 0.89.

Going from `CCn1c(C)nnc1CNC(C)C1CCCC(C)C1` (stereo not given) to `CN(C)c1noc(CN2CC[C@@]2(C)C2CCCCC2)n1`, the Z score rises from -0.98 to 1.76.

Compared with `Cc1nn(Cc2csc(-c3cccs3)n2)c(N)c1C#N`, `Nc1ncc(C2(c3cccs3)CCCC2)s1` is lower in Z score: 0.8 for the first, 0.76 for the second.

Compared with `O[C@@H](Cc1nc(-c2ccccn2)no1)c1cccc(F)c1`, `Cc1ccc2[nH]c(-c3nc(CCN(C)C(=O)c4ccc(F)cc4Cl)no3)c(C)c2c1` is lower in Z score: 0.07 for the first, -0.78 for the second.

First: CN1[C@@H]2CC[C@H]1CN(C(=O)Nc1ccc(-c3cscn3)cc1)CC2
Second: Cc1nnc(-c2cccc(NC(=O)C3CCN(C(=O)Cn4cccn4)CC3)c2)s1
The Z score of the first is lower: -1 for the first, 2.44 for the second.

Compared with `CN(CC1(c2ccc(Br)cc2)CC1)C(=O)[C@H]1CCn2cncc2C1`, `O=C1CC[C@@]2(CCCN(C(=O)c3ccccc3)C2)CN1CCc1c[nH]cn1` is higher in Z score: 0.98 for the first, 1.13 for the second.

First: C[C@H](NC(=O)c1ccnn1C(F)F)C(C)(C)C
Second: CC[C@@H](C(C)C)S(=O)(=O)NC(=O)c1cc(C#N)cn1C
The Z score of the first is higher: 1.49 for the first, 0.56 for the second.

Compared with `CCCCN(CC(N)=O)c1cc(C)nc(CC)n1`, `COCCn1ccnc1CN(C)Cc1nc(C)c[nH]1` is higher in Z score: -0.16 for the first, 1.55 for the second.

First: CC(C)C[C@@H](Cc1ccn(C(C)C)n1)C(=O)O
Second: CNC(=O)COC(=O)Cc1ccc(Cl)cc1
The Z score of the first is higher: 0.52 for the first, -3.43 for the second.

Going from `COc1ccccc1N1CCN(C(=O)C2CC=CCC2C(=O)O)CC1` (stereo not given) to `Cc1c(CN2CCC(CCC(=O)Nc3ccccc3Cl)CC2)[nH]c2ccccc12`, the Z score rises from -0.11 to 0.81.

Compared with `CN1CCCCC[C@H]1C(=O)N1CCC2(CCOCC2)CC1`, `Cn1nc(-c2ccc3c(c2)OCCO3)nc1N1CCCCC1` is higher in Z score: 0.9 for the first, 0.98 for the second.

Going from `CC(C)C[C@H]1NC(=O)[C@H]2CN(S(=O)(=O)c3ccc(Cl)cc3)CCN2C1=O` to `Cc1n[nH]c(C)c1Cc1n[nH]c(=O)n1-c1cccc(Cl)c1`, the Z score rises from 0.81 to 2.48.

Compared with `Cc1cc(NCc2ccnn2C)nc(C)n1`, `Cc1cc(S(=O)(=O)N[C@@H]2COCC[C@@H]2OCCN(C)C)c(C)s1` is lower in Z score: 1.44 for the first, 0.1 for the second.

`O=C1N[C@@](O)(c2ccccc2)c2cc3c(cc21)OCCO3` was tested, and the Z score was 1.86.
